The values that follow come from PMC4336329 (PLoS ONE, 2015).

The structures appear in SMILES notation. In all, about 310,000 compounds went through this assay and about 14,000 (4.5%) showed an effect of 50% or more. The effect is printed as a negative number. The list shows a part of the results.
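Note: peak tail current of the secondary pulse compared with the same well before compound.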

The assay deals with human ether-à-go-go-related gene (hERG) potassium channel (human, UniProt Q12809). The assay can be described thus: primary screen, population patch clamp on CHO cells stably expressing hERG.
Sequence of human ether-à-go-go-related gene (hERG) potassium channel (Q12809 whole entry, looked up): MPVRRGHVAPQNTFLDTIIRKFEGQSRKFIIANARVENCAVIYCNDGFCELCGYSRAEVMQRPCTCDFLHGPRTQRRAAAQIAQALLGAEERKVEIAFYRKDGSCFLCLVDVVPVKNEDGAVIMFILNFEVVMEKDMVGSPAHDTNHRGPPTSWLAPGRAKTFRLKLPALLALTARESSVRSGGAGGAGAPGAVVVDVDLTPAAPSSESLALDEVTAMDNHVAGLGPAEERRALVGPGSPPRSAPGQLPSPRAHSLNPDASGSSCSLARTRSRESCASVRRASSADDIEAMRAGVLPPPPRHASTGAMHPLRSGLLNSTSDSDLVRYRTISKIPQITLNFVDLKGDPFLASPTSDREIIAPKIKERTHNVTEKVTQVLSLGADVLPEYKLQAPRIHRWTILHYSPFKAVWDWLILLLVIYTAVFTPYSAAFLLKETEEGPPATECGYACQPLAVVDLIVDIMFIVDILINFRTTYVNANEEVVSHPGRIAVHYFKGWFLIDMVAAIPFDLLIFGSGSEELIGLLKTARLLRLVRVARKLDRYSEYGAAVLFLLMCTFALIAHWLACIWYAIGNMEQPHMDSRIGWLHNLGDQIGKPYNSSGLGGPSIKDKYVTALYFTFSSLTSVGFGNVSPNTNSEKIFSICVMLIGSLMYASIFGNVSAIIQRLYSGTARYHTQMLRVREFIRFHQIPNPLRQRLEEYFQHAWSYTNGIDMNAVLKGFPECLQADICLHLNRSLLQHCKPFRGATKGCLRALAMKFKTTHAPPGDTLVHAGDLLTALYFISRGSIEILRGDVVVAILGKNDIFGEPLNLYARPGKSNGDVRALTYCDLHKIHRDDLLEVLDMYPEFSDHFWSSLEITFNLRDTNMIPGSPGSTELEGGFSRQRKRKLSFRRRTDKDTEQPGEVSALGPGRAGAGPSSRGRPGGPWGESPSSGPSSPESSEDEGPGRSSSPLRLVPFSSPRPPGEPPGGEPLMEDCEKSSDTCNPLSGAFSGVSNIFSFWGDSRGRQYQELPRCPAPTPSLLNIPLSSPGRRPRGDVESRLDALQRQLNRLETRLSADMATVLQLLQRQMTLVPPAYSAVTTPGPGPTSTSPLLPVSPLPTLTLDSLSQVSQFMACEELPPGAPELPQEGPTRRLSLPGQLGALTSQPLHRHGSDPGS
Take `CC(C)(C)NC(=O)C(=O)N/N=C/c1ccc(Br)cc1`: the “hERG current change (%, negative = inhibition) at 10uM” value is given as 14.7%.

Turning to `O=Cc1cn(-c2ccc(F)cc2)c2ccccc12`, the “hERG current change (%, negative = inhibition) at 10uM” value worked out at 3.99%. `OC1CCN(C(=S)Nc2ccc(Oc3ccccc3)cc2)CC1`: the “hERG current change (%, negative = inhibition) at 10uM” value turned out to be 0.0974%. On to `COC(C)(C)[C@@H](O)COc1c2ccoc2cc2oc(=O)ccc12`, for which the “hERG current change (%, negative = inhibition) at 10uM” value came out at 3.23%. As for `CN(C(=O)C1CCN(c2ncnc3c2nc2n3CCCCC2)CC1)C1CCCCC1`, the figure is -30.2%; as for `CCCn1c(SCCN2CCOCC2)nc2c1c(=O)n(C)c(=O)n2C`, 14.2%; as for `Cc1cccc(OCC(=O)N/N=C\c2cc3c(cc2[N+](=O)[O-])OCO3)c1C`, -7.82%. `Cc1cccc(C(=O)NNC2=CC(=O)CC(C)(C)C2)c1O`: the “hERG current change (%, negative = inhibition) at 10uM” value came out at 15%. Consider `O=C1CCCc2ccccc2N1Cc1ccccc1`, for which the “hERG current change (%, negative = inhibition) at 10uM” value turned out to be 5.83%. Regarding `Cc1ccc(NC(=S)NC(NC(=O)c2ccco2)C(Cl)(Cl)Cl)cc1` (centres unmarked), the “hERG current change (%, negative = inhibition) at 10uM” value is reported as -3.41%. Regarding `O=C1CC[C@H](OCc2ccccc2)CCN1[C@H](CSc1ccccc1)Cc1ccccc1`, the “hERG current change (%, negative = inhibition) at 10uM” value is listed as -51%. As to `COC(=O)/C=C/c1ccc(-n2cncn2)cc1`, the “hERG current change (%, negative = inhibition) at 10uM” value came out at 6.87%.

In the case of `CN(Cc1cccnc1)C(=O)CNC(=O)COc1ccccc1`, the “hERG current change (%, negative = inhibition) at 10uM” value amounted to 16.9%. For `COc1ccc(OC)c(NC(=O)Nc2ccc(Cl)cc2)c1`, the “hERG current change (%, negative = inhibition) at 10uM” value is on record as 2.47%. Consider `CCOC(=O)C1(c2csc(N)n2)COC(=O)C1` (centres unmarked), for which the “hERG current change (%, negative = inhibition) at 10uM” value turned out to be 8.49%. For the compound `Cn1c(=O)c2c(nc(CN3CCOCC3)n2CCCO)n(C)c1=O`, the “hERG current change (%, negative = inhibition) at 10uM” value is recorded as 17%.

For the compound `COc1ccc(S(=O)(=O)N2CCN(C(=O)C3CC3)CC2)cc1`, the “hERG current change (%, negative = inhibition) at 10uM” value came to 4%. Turning to `CCC(=O)NCCn1c(C)cc2ccccc21`, the “hERG current change (%, negative = inhibition) at 10uM” value is listed as -0.267%.

Turning to `Cc1ccc(CN(c2ccc(C(=O)NCc3ccc4c(c3)OCO4)cc2)S(C)(=O)=O)cc1`, the “hERG current change (%, negative = inhibition) at 10uM” value is reported as 5.34%. For the compound `O=C(O)COc1cccc(/C=C2/SC(=S)N(Cc3ccccc3)C2=O)c1`, the “hERG current change (%, negative = inhibition) at 10uM” value was 0.27%.

With `Cc1cc(NC(=O)COC(=O)c2ccco2)no1`, the “hERG current change (%, negative = inhibition) at 10uM” value was found to be 17.5%.

Turning to `CC(C)c1csc(CN2CCC(CO)(Cc3ccccc3)CC2)n1`, the “hERG current change (%, negative = inhibition) at 10uM” value is given as -9.39%. With `CCC(C)NC(=O)C1c2ccccc2C(=O)N1Cc1ccccc1OC` (centres unmarked), the “hERG current change (%, negative = inhibition) at 10uM” value is listed as -16.7%. For the compound `COC(=O)c1sc(NC(=O)COc2c(C)cccc2C)nc1C`, the “hERG current change (%, negative = inhibition) at 10uM” value is listed as -0.354%. Take `CCOC(=O)c1c(C)[nH]c(C)c1S(=O)(=O)N(C)CC(=O)NCc1cccc(C)c1`: the “hERG current change (%, negative = inhibition) at 10uM” value is -13.3%. Turning to `Cc1cc(C(=O)O)c2ccccc2n1`, the “hERG current change (%, negative = inhibition) at 10uM” value stood at 12.6%.
